# PMC12136788
# Some of the results follow.
# T1: UNK ZnF1-3 (human, UniProt Q9C0B0 31-174)
# T1 sequence: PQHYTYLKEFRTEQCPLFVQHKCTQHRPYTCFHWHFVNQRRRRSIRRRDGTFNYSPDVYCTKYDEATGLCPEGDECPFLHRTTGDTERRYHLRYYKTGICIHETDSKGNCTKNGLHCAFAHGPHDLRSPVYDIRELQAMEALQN
# B1: chr9:123526118:123526119:-_ENSG00000119402_ENST00000608872|hu_hu|motif|central (ssRNA)
# RNA: GGGAGUUCUACAGUCCGACGAUCGAGUUCCAGGGUAAGAGGCCCGGUCUCUAACCUUCCAGCUCACUGCUCUUUUCUGCGGUACCAGGGCACCGCUGUGCAGUCAUCCAGGCUGCCGGGGACUAGCUUCCCCGACAUGGCAACCAACAGAGGAUUGAGCAUCA
# B2: chr1:184392483:184392484:+_ENSMUSG00000026510_ENSMUST00000117245|mus_hu|FALSE|FALSE (ssRNA)
# RNA: GGGAGUUCUACAGUCCGACGAUCUUUUAAAGUCAGCUAUGAUCUUGACAAAUAUUACGGGUAAGUCUGUAGCAAGUUUCUAAUUUCUGAGAUACAAAAGACAAUAAAUACAGAUUAAAAUUCAGCCUACAAACAAGAUUCUACCAACAGAGGAUUGAGCAUCA
# B3: chr19:16212804:16212805:+_ENSG00000167460_ENST00000300933|hu_mus|hu_hu_hu_mus_False|68_98 (ssRNA)
# RNA: GGGAGUUCUACAGUCCGACGAUCAACAAUUCUGGAGAAGAACAUCAAUGUAACAUGGAACAGCAUUCCAUCUAUUACAGAAGGCACAUGGGCAACAAUGAUCACCCCAGCAUUCUCGCUUGGAAUGCUUAAAGACAAUCUGUUCAACAGAGGAUUGAGCAUCA
# B4: chrX:71549762:71549763:+_ENSMUSG00000019087_ENSMUST00000019231|mus_mus|mus_mus_mus_hu_False|1_28 (ssRNA)
# RNA: GGGAGUUCUACAGUCCGACGAUCAAACCCGUGUACUUCUUAUUGUUAGCACAACAUCACCAGAAAACGAUAACGACAGCCAAGCAGGACAGACAGUUAAGUAGUACUUCCACACCUCCAAACUCAGGGAGCCCUAUAGUUCAUCAACAGAGGAUUGAGCAUCA
# B5: 172128880_172129000_2286_3pUTR_ENSMUSG00000026667_ENSMUST00000150821|mouse|control|control (ssRNA)
# RNA: GGGAGUUCUACAGUCCGACGAUCCAGGGCAGCAGGGCAGAUGGGGGAGGAGGGUCUGUGAUGAGCUGCCUUCUCUGCACUCUUCUCUUUUCCCGUCACUGUGCAUCUAACUUUUAUCUGAUCCAUUUCAAUUUCCCAUUAUAGCAACAGAGGAUUGAGCAUCA
# B6: chr7:141450121:141450122:+_ENSG00000106028_ENST00000265304|hu_mus|hu_hu_hu_mus_True|28_88 (ssRNA)
# RNA: GGGAGUUCUACAGUCCGACGAUCUCAUCCGUUCUAUGCCUUUUCUUUCGUCUGGUCACUCAGAAAUAUAAUGUUAUCAGCUAUGAUUGUUGUUGCUUGCCGCCUCACAUUAUUUUUAUCCAUGUACUCGCCAUAGUCCACUUUCAACAGAGGAUUGAGCAUCA
# B7: 109884154_109885750_836_3pUTR_ENSMUSG00000028546_ENSMUST00000106598|mouse|control|control (ssRNA)
# RNA: GGGAGUUCUACAGUCCGACGAUCGUUCUGUAGCACCGCUGGGCUUCUGGCCAUUCAGUCCUUUGAUGGCUUCUUCUGCCUCAAUCCUCUUAUCAAAGCGGAUGAAUCCCACCCCUCUAGAGACCCCUGUGACUUGAUCAACCACAACAGAGGAUUGAGCAUCA
# B8: chr8:74858975:74858976:-_ENSG00000154582_ENST00000284811|hu_mus|hu_hu_hu_mus_True|8_108 (ssRNA)
# RNA: GGGAGUUCUACAGUCCGACGAUCGACCUUGUACGUAAAAUACAUGCACACUUUUGAUAGCACAUGUGAGGGGAUCUCUCUAAAAUUGACCUCGUUGGUUUCAUUCUCAGCAAACUGACCUGGACCACUCAACAUGGCCUUUAUCAACAGAGGAUUGAGCAUCA
# B9: chr1:46159521:46159522:+_ENSG00000159596_ENST00000372025|hu_hu|motif|central (ssRNA)
# RNA: GGGAGUUCUACAGUCCGACGAUCUUUUUAUACUUGACCAGGUCUCUUAUGUCCUUUUUCUGGAAAACUACUUUUAACGGCGGAAGUGAUUAUAAAUGAAAAAGUGGCCAAUAAAGUGACUACUAUCCUCAGGGCUUUAAACCACAACAGAGGAUUGAGCAUCA
# B10: 30262637_30263328_1237_CDS_ENSMUSG00000026853_ENSMUST00000028207|mouse|control|control (ssRNA)
# RNA: GGGAGUUCUACAGUCCGACGAUCCUCUCGGUUAACUUUGUCUUUAAUGAGGUUGUUGUAGGCCUUGGCCCAGGUGUUUCGGUGGUUGGAGGUUAGGAUGCCAACAGGCUCUUUGUUGGAUUGCAGUGAGGAAUUCCAUAUUUUCAACAGAGGAUUGAGCAUCA
# B11: chr5:33461064:33461065:+_ENSG00000113407_ENST00000502553|hu_mus|motif|central (ssRNA)
# RNA: GGGAGUUCUACAGUCCGACGAUCUGUGAGCCCGGUGAGAGCCCCCGAGAGCUCAUUCCUAUGCAGCACACCAAAGUCAGCGGGCCGCAGGGGCAGCUCUCGCCAGGACCGUGGCCGGUGAUCGAACAUCAGGCAGUGUCCCGGCAACAGAGGAUUGAGCAUCA
# B12: chr7:112757510:112757511:-_ENSG00000214194_ENST00000397764|hu_mus|motif|central (ssRNA)
# RNA: GGGAGUUCUACAGUCCGACGAUCCUUUCUUGCGUAUAUCCCCAAGCAAGCACAGAUGCCGGUAAUGCUGAGAACCACACCGGAUAAGAGUGCAAUCGCGUCUCCAGCUUCCACUGCUUCAACAACAGGCAGGAUCAAAAGCAGCAACAGAGGAUUGAGCAUCA
# B13: 112958320_112958440_639_3pUTR_ENSMUSG00000030879_ENSMUST00000124482|mouse|control|control (ssRNA)
# RNA: GGGAGUUCUACAGUCCGACGAUCAAGACCCACGAACACGGGCACCACACCUAUGCACCACUCUCCAGCUCCAGUUAAGUCUUUGGUGUUUGAACUGUACAGGAGCUGUGGAGGCUUGCGUCCUGGUUAUGGUGCAGGUCCUGCCAACAGAGGAUUGAGCAUCA
# B14: 83500210_83500330_104_ncRNA_ENSMUSG00000027091_ENSMUST00000134789|mouse|control|control (ssRNA)
# RNA: GGGAGUUCUACAGUCCGACGAUCAGCACAAAUCCAGGAGGAAGUGCAUGGCGAUACAUGCAGUUGUCCCCACCUCCAGGACACACCCAAAACCAGCCAUACUUGUUAUUUUCAAUAGCUUCAAGAAAAUGUCUGCACACCUAUCAACAGAGGAUUGAGCAUCA
# Molecular target: T1, UNK ZnF1-3
# Experiment: nsRBNS (natural sequence RNA bind-n-seq); RBNS binding buffer (assumed for nsRBNS): 25 mM Tris pH 7.5, 150 mM KCl, 3 mM MgCl2, 0.01% Triton X-100, 500 ug/ml BSA, 20 U/ml SUPERase-In, 4 C; UNK is unkempt and MSI1 is Musashi-1; names of the RNAs are library labels; protein concentration not given here; high values mean tight binding
row,Binder,binding signal
1,B1,0.639 enrichment R
2,B2,0.89 enrichment R
3,B3,0.877 enrichment R
4,B4,1.51 enrichment R
5,B5,0.764 enrichment R
6,B6,0.463 enrichment R
7,B7,1.11 enrichment R
8,B8,0.616 enrichment R
9,B9,1.17 enrichment R
10,B10,0.621 enrichment R
11,B11,1.16 enrichment R
12,B12,0.895 enrichment R
13,B13,0.612 enrichment R
14,B14,1.84 enrichment R
